# Assay results as given in the supplement of paper PMC8728848.
# This is one part of the list.
# Key:
# Experiment in all cases: glycan array binding signal (z-score within array); higher = stronger binding
# Conditions in all cases: glycan notation: IUPAC condensed, linker removed
# [1] = target: Neu5Ac(a2-6)Gal(b1-4)GlcNAc(b1-3)Gal(b1-4)GlcNAc(b1-3)[Neu5Ac(a2-6)Gal(b1-4)GlcNAc(b1-3)Gal(b1-4)GlcNAc(b1-6)]GalNAc
# In short: (§1)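 Arrays were curated from the Consortium for Functional Glycomics database, 3228 in total, and kept only where the protein sequence was available. Binding is expressed as a within-array Z-score. This score was averaged across arrays of the same protein sequence at different concentrations or buffers and across linkers, and negative values can be read as non-binding.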
# [2] = target: Neu5Ac(a2-6)Gal(b1-4)GlcNAc(b1-3)Gal(b1-4)GlcNAc(b1-6)[Gal(b1-3)]GalNAc
# In short: as §1
# [3] = target: Neu5Ac(a2-6)Gal(b1-4)GlcNAc(b1-3)Gal(b1-4)[Fuc(a1-3)]GlcNAc(b1-3)Gal(b1-4)[Fuc(a1-3)]GlcNAc
# In short: as §1
# [4] = target: Neu5Ac(a2-6)Gal(b1-4)GlcNAc(b1-3)GalNAc
# In short: as §1
# [5] = target: Neu5Ac(a2-6)Gal(b1-4)GlcNAc(b1-3)[Neu5Ac(a2-6)Gal(b1-4)GlcNAc(b1-6)]GalNAc
# In short: as §1
# [6] = target: Neu5Ac(a2-6)Gal(b1-4)GlcNAc(b1-6)GalNAc
# In short: as §1
# [7] = target: Neu5Ac(a2-6)Gal(b1-4)GlcNAc(b1-6)[Gal(b1-3)GlcNAc(b1-3)]Gal(b1-4)Glc
# In short: as §1
# [8] = target: Neu5Ac(a2-6)Gal(b1-4)GlcNAc(b1-6)[Gal(b1-3)]GalNAc
# In short: as §1
# [9] = target: Neu5Ac(a2-6)Gal(b1-4)GlcNAc6S
# In short: as §1
# Neu5Ac(a2-6)GalNAc = target: Neu5Ac(a2-6)GalNAc
# In short: as §1
# [10] = target: Neu5Ac(a2-6)GalNAc(b1-4)GlcNAc
# In short: as §1
# [11] = target: Neu5Ac(a2-6)GalNAc(b1-4)GlcNAc6S
# In short: as §1
# [12] = target: Neu5Ac(a2-6)GlcNAc(b1-4)GlcNAc
# In short: as §1
# [13] = target: Neu5Ac(a2-6)GlcNAc(b1-4)GlcNAc(b1-4)GlcNAc
# In short: as §1
# Neu5Ac(a2-8)Neu5Ac = target: Neu5Ac(a2-8)Neu5Ac
# In short: as §1
# [14] = target: Neu5Ac(a2-8)Neu5Ac(a2-3)Gal(b1-3)GalNAc(b1-4)[Neu5Ac(a2-3)]Gal(b1-4)Glc
# In short: as §1
# [15] = target: Neu5Ac(a2-8)Neu5Ac(a2-3)Gal(b1-3)GalNAc(b1-4)[Neu5Ac(a2-8)Neu5Ac(a2-3)]Gal(b1-4)Glc
# In short: as §1
# [16] = target: Neu5Ac(a2-8)Neu5Ac(a2-3)Gal(b1-4)Glc
# In short: as §1
# [17] = target: Neu5Ac(a2-8)Neu5Ac(a2-3)Gal(b1-4)GlcNAc
# In short: as §1
# [18] = target: Neu5Ac(a2-8)Neu5Ac(a2-3)[Gal(b1-3)GalNAc(b1-4)]Gal(b1-4)Glc
# In short: as §1
# [19] = target: Neu5Ac(a2-8)Neu5Ac(a2-3)[GalNAc(b1-4)]Gal(b1-4)Glc
# In short: as §1
# [20] = target: Neu5Ac(a2-8)Neu5Ac(a2-8)Neu5Ac
# In short: as §1
# [21] = target: Neu5Ac(a2-8)Neu5Ac(a2-8)Neu5Ac(a2-3)Gal(b1-4)Glc
# In short: as §1
# [22] = target: Neu5Ac(a2-8)Neu5Ac(a2-8)Neu5Ac(a2-3)[Gal(b1-3)GalNAc(b1-4)]Gal(b1-4)Glc
# In short: as §1
# [23] = target: Neu5Ac(a2-8)Neu5Ac(a2-8)Neu5Ac(a2-3)[GalNAc(b1-4)]Gal(b1-4)Glc
# In short: as §1
# [24] = target: Neu5Ac(a2-8)Neu5Ac(a2-8)Neu5Ac(a2-8)Neu5Ac(a2-3)[GalNAc(b1-4)]Gal(b1-4)Glc
# In short: as §1
# [25] = target: Neu5Ac(a2-8)Neu5Gc(a2-3)Gal(b1-4)GlcNAc
# In short: as §1
# [26] = target: Neu5Ac(b2-6)Gal(b1-4)GlcNAc
# In short: as §1
# Neu5Ac(b2-6)GalNAc = target: Neu5Ac(b2-6)GalNAc
# In short: as §1
# [27] = target: Neu5Ac9Ac(a2-3)Gal(b1-3)GlcNAc
# In short: as §1
# [28] = target: Neu5Ac9Ac(a2-3)Gal(b1-4)GlcNAc
# In short: as §1
# [29] = target: Neu5Ac9Ac(a2-6)Gal(b1-4)GlcNAc
# In short: as §1
# [30] = target: Neu5Gc(a2-3)Gal(b1-3)GlcNAc
# In short: as §1
# [31] = target: Neu5Gc(a2-3)Gal(b1-3)[Fuc(a1-4)]GlcNAc
# In short: as §1
# Neu5Gc(a2-3)Gal(b1-4)Glc = target: Neu5Gc(a2-3)Gal(b1-4)Glc
# In short: as §1
# [32] = target: Neu5Gc(a2-3)Gal(b1-4)GlcNAc
# In short: as §1
# [33] = target: Neu5Gc(a2-3)Gal(b1-4)GlcNAc(b1-3)Gal(b1-4)GlcNAc(b1-2)Man(a1-3)[Neu5Gc(a2-3)Gal(b1-4)GlcNAc(b1-3)Gal(b1-4)GlcNAc(b1-2)Man(a1-6)]Man(b1-4)GlcNAc(b1-4)GlcNAc
# In short: as §1
# [34] = target: Neu5Gc(a2-3)Gal(b1-4)[Fuc(a1-3)]GlcNAc
# In short: as §1
# [35] = target: Neu5Gc(a2-6)Gal(b1-4)GlcNAc
# In short: as §1
# Neu5Gc(a2-6)GalNAc = target: Neu5Gc(a2-6)GalNAc
# In short: as §1
# [36] = target: Neu5Gc(a2-8)Neu5Ac(a2-3)Gal(b1-4)GlcNAc
# In short: as §1
# [37] = target: Neu5Gc(a2-8)Neu5Gc(a2-3)Gal(b1-4)GlcNAc
# In short: as §1
# [38] = target: Neu5Gc(a2-8)Neu5Gc(a2-3)Gal(b1-4)GlcNAc(b1-3)Gal(b1-4)GlcNAc
# In short: as §1
# [39] = target: Neu5Gc(a2-8)Neu5Gc(a2-6)Gal(b1-4)GlcNAc
# In short: as §1
# [40] = target: Neu5Gc(b2-6)Gal(b1-4)GlcNAc
# In short: as §1
binder,measurement,setting,value
"LSECtin (Homo sapiens), Q6UXB4 (protein) MDTTRYSKWGGSSEEVPGGPWGRWVHWSRRPLFLALAVLVTTVLWAVILSILLSKASTERAALLDGHDLLRTNASKQTAALGALKEEVGDCHSCCSGTQAQLQTTRAELGEAQAKLMEQESALRELRERVTQGLAEAGRGREDVRTELFRALEAVRLQNNSCEPCPTSWLSFEGSCYFFSVPKTTWAAAQDHCADASAHLVIVGGLDEQGFLTRNTRGRGYWLGLRAVRHLGKVQGYQWVDGVSLSFSHWNQGEPNDAWGRENCVMMLHTGLWNDAPCDSEKDGWICEKRHNC",glycan array binding signal (z-score),[1],-0.129
same,glycan array binding signal (z-score),[2],-0.133
same,glycan array binding signal (z-score),[3],-0.187
same,glycan array binding signal (z-score),[4],-0.169
same,glycan array binding signal (z-score),[5],-0.133
same,glycan array binding signal (z-score),[6],-0.099
same,glycan array binding signal (z-score),[7],-0.127
same,glycan array binding signal (z-score),[8],-0.137
same,glycan array binding signal (z-score),[9],-0.058
same,glycan array binding signal (z-score),Neu5Ac(a2-6)GalNAc,-0.224
same,glycan array binding signal (z-score),[10],-0.182
same,glycan array binding signal (z-score),[11],-0.124
same,glycan array binding signal (z-score),[12],-0.231
same,glycan array binding signal (z-score),[13],-0.083
same,glycan array binding signal (z-score),Neu5Ac(a2-8)Neu5Ac,-0.115
same,glycan array binding signal (z-score),[14],-0.142
same,glycan array binding signal (z-score),[15],-0.044
same,glycan array binding signal (z-score),[16],-0.137
same,glycan array binding signal (z-score),[17],-0.141
same,glycan array binding signal (z-score),[18],-0.129
same,glycan array binding signal (z-score),[19],-0.145
same,glycan array binding signal (z-score),[20],-0.209
same,glycan array binding signal (z-score),[21],-0.117
same,glycan array binding signal (z-score),[22],-0.137
same,glycan array binding signal (z-score),[23],-0.21
same,glycan array binding signal (z-score),[24],-0.223
same,glycan array binding signal (z-score),[25],-0.135
same,glycan array binding signal (z-score),[26],-0.156
same,glycan array binding signal (z-score),Neu5Ac(b2-6)GalNAc,-0.124
same,glycan array binding signal (z-score),[27],-0.263
same,glycan array binding signal (z-score),[28],-0.077
same,glycan array binding signal (z-score),[29],-0.085
same,glycan array binding signal (z-score),[30],-0.2
same,glycan array binding signal (z-score),[31],-0.208
same,glycan array binding signal (z-score),Neu5Gc(a2-3)Gal(b1-4)Glc,0.095
same,glycan array binding signal (z-score),[32],-0.157
same,glycan array binding signal (z-score),[33],-0.108
same,glycan array binding signal (z-score),[34],-0.188
same,glycan array binding signal (z-score),[35],0.062
same,glycan array binding signal (z-score),Neu5Gc(a2-6)GalNAc,-0.16
same,glycan array binding signal (z-score),[36],-0.137
same,glycan array binding signal (z-score),[37],-0.147
same,glycan array binding signal (z-score),[38],-0.126
same,glycan array binding signal (z-score),[39],-0.138
same,glycan array binding signal (z-score),[40],-0.058
